# Assay results taken from the supplement of paper PMC8728848.
# Some of the results follow.
# How the values were obtained:
# Experiment in all cases: glycan array binding signal (z-score within array); higher = stronger binding
# Settings in all cases: glycan notation: IUPAC condensed, linker removed
# [1] = molecular target: Fuc(a1-2)Gal(b1-4)GlcNAc(b1-3)Gal(b1-4)GlcNAc(b1-2)Man(a1-3)[Fuc(a1-2)Gal(b1-4)GlcNAc(b1-3)Gal(b1-4)GlcNAc(b1-2)Man(a1-6)]Man(b1-4)GlcNAc(b1-4)GlcNAc
# Summary of the method: (§1)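 The Consortium for Functional Glycomics database supplied 3228 glycan arrays, of which those lacking an available protein sequence were dropped. The binding signal, a within-array Z-score, was averaged across arrays of the same protein sequence and across linkers. Negative scores can be read as non-binding.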
# [2] = molecular target: Fuc(a1-2)Gal(b1-4)GlcNAc(b1-3)Gal(b1-4)GlcNAc(b1-3)Gal(b1-4)GlcNAc
# Summary of the method: as §1
# [3] = molecular target: Fuc(a1-2)Gal(b1-4)GlcNAc(b1-3)GalNAc
# Summary of the method: as §1
# [4] = molecular target: Fuc(a1-2)Gal(b1-4)GlcNAc(b1-3)[Fuc(a1-2)Gal(b1-4)GlcNAc(b1-6)]GalNAc
# Summary of the method: as §1
# [5] = molecular target: Fuc(a1-2)Gal(b1-4)GlcNAc(b1-3)[Fuc(a1-3)[Gal(b1-4)]GlcNAc(b1-6)]Gal(b1-4)Glc
# Summary of the method: as §1
# [6] = molecular target: Fuc(a1-2)Gal(b1-4)GlcNAc(b1-6)GalNAc
# Summary of the method: as §1
# [7] = molecular target: Fuc(a1-2)Gal(b1-4)GlcNAc6S
# Summary of the method: as §1
# [8] = molecular target: Fuc(a1-2)Gal(b1-4)[Fuc(a1-3)]GlcNAc
# Summary of the method: as §1
# [9] = molecular target: Fuc(a1-2)Gal(b1-4)[Fuc(a1-3)]GlcNAc(b1-2)Man(a1-3)[Fuc(a1-2)Gal(b1-4)[Fuc(a1-3)]GlcNAc(b1-2)Man(a1-6)]Man(b1-4)GlcNAc(b1-4)[Fuc(a1-6)]GlcNAc
# Summary of the method: as §1
# [10] = molecular target: Fuc(a1-2)Gal(b1-4)[Fuc(a1-3)]GlcNAc(b1-2)[Fuc(a1-2)Gal(b1-4)[Fuc(a1-3)]GlcNAc(b1-4)]Man(a1-3)[Fuc(a1-2)Gal(b1-4)[Fuc(a1-3)]GlcNAc(b1-2)Man(a1-6)]Man(b1-4)GlcNAc(b1-4)GlcNAc
# Summary of the method: as §1
# [11] = molecular target: Fuc(a1-2)Gal(b1-4)[Fuc(a1-3)]GlcNAc(b1-3)Gal(b1-4)[Fuc(a1-3)]GlcNAc
# Summary of the method: as §1
# [12] = molecular target: Fuc(a1-2)Gal(b1-4)[Fuc(a1-3)]GlcNAc(b1-3)Gal(b1-4)[Fuc(a1-3)]GlcNAc(b1-3)Gal(b1-4)[Fuc(a1-3)]GlcNAc
# Summary of the method: as §1
# [13] = molecular target: Fuc(a1-2)Gal(b1-4)[Fuc(a1-3)]GlcNAc(b1-3)GalNAc
# Summary of the method: as §1
# [14] = molecular target: Fuc(a1-2)Gal(b1-4)[Fuc(a1-3)]GlcNAc(b1-3)[Neu5Ac(a2-6)Gal(b1-4)GlcNAc(b1-6)]Gal(b1-4)Glc
# Summary of the method: as §1
# [15] = molecular target: Fuc(a1-2)Gal3S(b1-4)GlcNAc
# Summary of the method: as §1
# [16] = molecular target: Fuc(a1-2)Gal6S(b1-3)GlcNAc
# Summary of the method: as §1
# [17] = molecular target: Fuc(a1-2)Gal6S(b1-3)GlcNAc6S
# Summary of the method: as §1
# Fuc(a1-2)Gal6S(b1-4)Glc = molecular target: Fuc(a1-2)Gal6S(b1-4)Glc
# Summary of the method: as §1
# [18] = molecular target: Fuc(a1-2)Gal6S(b1-4)Glc6S
# Summary of the method: as §1
# Fuc(a1-2)[Gal(a1-3)]Gal = molecular target: Fuc(a1-2)[Gal(a1-3)]Gal
# Summary of the method: as §1
# [19] = molecular target: Fuc(a1-2)[Gal(a1-3)]Gal(b1-3)GalNAc
# Summary of the method: as §1
# [20] = molecular target: Fuc(a1-2)[Gal(a1-3)]Gal(b1-3)GalNAc(b1-3)Gal(a1-4)Gal(b1-4)Glc
# Summary of the method: as §1
# [21] = molecular target: Fuc(a1-2)[Gal(a1-3)]Gal(b1-3)GlcNAc
# Summary of the method: as §1
# [22] = molecular target: Fuc(a1-2)[Gal(a1-3)]Gal(b1-3)GlcNAc(b1-2)Man(a1-3)[Fuc(a1-2)[Gal(a1-3)]Gal(b1-3)GlcNAc(b1-2)Man(a1-6)]Man(b1-4)GlcNAc(b1-4)GlcNAc
# Summary of the method: as §1
# [23] = molecular target: Fuc(a1-2)[Gal(a1-3)]Gal(b1-3)GlcNAc(b1-2)Man(a1-3)[Fuc(a1-2)[Gal(a1-3)]Gal(b1-3)GlcNAc(b1-2)Man(a1-6)]Man(b1-4)GlcNAc(b1-4)[Fuc(a1-6)]GlcNAc
# Summary of the method: as §1
# [24] = molecular target: Fuc(a1-2)[Gal(a1-3)]Gal(b1-3)GlcNAc(b1-3)GalNAc
# Summary of the method: as §1
# [25] = molecular target: Fuc(a1-2)[Gal(a1-3)]Gal(b1-3)GlcNAc(b1-6)GalNAc
# Summary of the method: as §1
# [26] = molecular target: Fuc(a1-2)[Gal(a1-3)]Gal(b1-4)Glc
# Summary of the method: as §1
# [27] = molecular target: Fuc(a1-2)[Gal(a1-3)]Gal(b1-4)GlcNAc
# Summary of the method: as §1
# [28] = molecular target: Fuc(a1-2)[Gal(a1-3)]Gal(b1-4)GlcNAc(b1-2)Man
# Summary of the method: as §1
# [29] = molecular target: Fuc(a1-2)[Gal(a1-3)]Gal(b1-4)GlcNAc(b1-2)Man(a1-3)[Fuc(a1-2)[Gal(a1-3)]Gal(b1-4)GlcNAc(b1-2)Man(a1-6)]Man(b1-4)GlcNAc(b1-4)GlcNAc
# Summary of the method: as §1
# [30] = molecular target: Fuc(a1-2)[Gal(a1-3)]Gal(b1-4)GlcNAc(b1-2)Man(a1-3)[Fuc(a1-2)[Gal(a1-3)]Gal(b1-4)GlcNAc(b1-2)Man(a1-6)]Man(b1-4)GlcNAc(b1-4)[Fuc(a1-6)]GlcNAc
# Summary of the method: as §1
# [31] = molecular target: Fuc(a1-2)[Gal(a1-3)]Gal(b1-4)GlcNAc(b1-3)GalNAc
# Summary of the method: as §1
# [32] = molecular target: Fuc(a1-2)[Gal(a1-3)]Gal(b1-4)GlcNAc(b1-3)[Fuc(a1-2)[Gal(a1-3)]Gal(b1-4)GlcNAc(b1-6)]GalNAc
# Summary of the method: as §1
# [33] = molecular target: Fuc(a1-2)[Gal(a1-3)]Gal(b1-4)GlcNAc(b1-6)GalNAc
# Summary of the method: as §1
# [34] = molecular target: Fuc(a1-2)[Gal(a1-3)]Gal(b1-4)[Fuc(a1-3)]Glc
# Summary of the method: as §1
# [35] = molecular target: Fuc(a1-2)[Gal(a1-3)]Gal(b1-4)[Fuc(a1-3)]GlcNAc
# Summary of the method: as §1
binder,measurement,setting,value
"SRA-1 (Homo sapiens), P21757 (protein) MEQWDHFHNQQEDTDSCSESVKFDARSMTALLPPNPKNSPSLQEKLKSFKAALIALYLLVFAVLIPLIGIVAAQLLKWETKNCSVSSTNANDITQSLTGKGNDSEEEMRFQEVFMEHMSNMEKRIQHILDMEANLMDTEHFQNFSMTTDQRFNDILLQLSTLFSSVQGHGNAIDEISKSLISLNTTLLDLQLNIENLNGKIQENTFKQQEEISKLEERVYNVSAEIMAMKEEQVHLEQEIKGEVKVLNNITNDLRLKDWEHSQTLRNITLIQGPPGPPGEKGDRGPTGESGPRGFPGPIGPPGLKGDRGAIGFPGSRGLPGYAGRPGNSGPKGQKGEKGSGNTLTPFTKVRLVGGSGPHEGRVEILHSGQWGTICDDRWEVRVGQVVCRSLGYPGVQAVHKAAHFGQGTGPIWLNEVFCFGRESSIEECKIRQWGTRACSHSEDAGVTCTL",glycan array binding signal (z-score),[1],0.064
same,glycan array binding signal (z-score),[2],0.202
same,glycan array binding signal (z-score),[3],-0.296
same,glycan array binding signal (z-score),[4],1.17
same,glycan array binding signal (z-score),[5],-0.419
same,glycan array binding signal (z-score),[6],0.726
same,glycan array binding signal (z-score),[7],-0.501
same,glycan array binding signal (z-score),[8],-0.093
same,glycan array binding signal (z-score),[9],-0.18
same,glycan array binding signal (z-score),[10],0.326
same,glycan array binding signal (z-score),[11],-0.376
same,glycan array binding signal (z-score),[12],0.398
same,glycan array binding signal (z-score),[13],-0.09
same,glycan array binding signal (z-score),[14],0.274
same,glycan array binding signal (z-score),[15],-0.394
same,glycan array binding signal (z-score),[16],-0.029
same,glycan array binding signal (z-score),[17],-0.128
same,glycan array binding signal (z-score),Fuc(a1-2)Gal6S(b1-4)Glc,-0.299
same,glycan array binding signal (z-score),[18],-0.013
same,glycan array binding signal (z-score),Fuc(a1-2)[Gal(a1-3)]Gal,0.705
same,glycan array binding signal (z-score),[19],0.335
same,glycan array binding signal (z-score),[20],-0.145
same,glycan array binding signal (z-score),[21],-0.247
same,glycan array binding signal (z-score),[22],-0.063
same,glycan array binding signal (z-score),[23],-0.435
same,glycan array binding signal (z-score),[24],-0.365
same,glycan array binding signal (z-score),[25],0.193
same,glycan array binding signal (z-score),[26],-0.418
same,glycan array binding signal (z-score),[27],0.489
same,glycan array binding signal (z-score),[28],-0.764
same,glycan array binding signal (z-score),[29],-0.296
same,glycan array binding signal (z-score),[30],-0.54
same,glycan array binding signal (z-score),[31],-0.281
same,glycan array binding signal (z-score),[32],0.157
same,glycan array binding signal (z-score),[33],-0.283
same,glycan array binding signal (z-score),[34],-0.504
same,glycan array binding signal (z-score),[35],0.193
